Results on 129 compounds are retold here after article PMC9574860, “Chemical Toolkit for PARK7: Potent, Selective, and High-Throughput” (Journal of Medicinal Chemistry, 2022).

Each structure is given as a SMILES string. About 400 (5.1%) of roughly 7,900 compounds showed an effect of 50% or more. This is one part of the list.

Sequence of Parkinson's disease protein 7 (PARK7/DJ1) (Q99497 whole entry, looked up, the tested form may be a part): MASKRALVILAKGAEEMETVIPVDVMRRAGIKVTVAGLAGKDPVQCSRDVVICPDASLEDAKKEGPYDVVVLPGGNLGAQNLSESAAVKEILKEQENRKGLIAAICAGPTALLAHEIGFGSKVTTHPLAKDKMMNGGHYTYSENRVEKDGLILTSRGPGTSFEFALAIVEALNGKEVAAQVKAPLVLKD

The experiment addresses Parkinson's disease protein 7 (PARK7/DJ1) (human, UniProt Q99497). The experiment can be described thus: primary screen, percent inhibition; read as competition with a fluorescent probe by fluorescence polarization; higher = more effect of the substance. The settings on record: 100 µM. The method in brief: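 Fluorescence-polarization probe displacement (JYQ-107, 20 nM final, 2 h) after 2 h preincubation of PARK7 (0.2 μM final) with each fragment at 100 μM final. Read-out ex/em 480/520 nm; remaining activity derived from FP signal loss relative to reference controls.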
Consider `CC1(C)OB(c2ccc(F)cc2C#N)OC1(C)C`, for which the Inhibition % is given as 2.79%.

On to `O=C(NC1CCC(O)CC1)N1CCCCC1C1OCCO1` (stereo not drawn), for which the Inhibition % was found to be 7.22%. The result for `C=CC(=O)NCc1cnc(N2CCOCC2)s1` reads 10.4%. The result for `COc1cc(C=C(C#N)C(N)=O)ccc1OC(F)F` reads 6.58%; that for `O=C(O)C1CCN(C=CC(=O)C(F)(F)F)CC1`, 7.05%; that for `O=C(NCCS(=O)(=O)F)c1ccccc1`, 13.4%. Regarding `CC(O)CCN(C)c1ccc(Cl)c(C#N)n1` (stereo not drawn), the Inhibition % is given as 8.44%. For `N#CC=C(Cl)c1ccc(F)cc1` the value was 2.3%. The result for `Cc1oncc1C(=O)CCl` reads 40.2%; that for `CC(=O)Nc1cccc(OC(=O)N(C)C)c1`, 10.1%; that for `CS(=O)(=O)c1ccc(CNC(=O)CCl)cc1`, 10.2%. The result for `C=CC(=O)N1CCOCC2(CCCC2)C1` reads 2.26%. With `C=CC(=O)Nc1cccc(CN2CCNC(=O)C2)c1`, the Inhibition % was 5.12%. As to `C=CC(=O)NCCN1CCSCC1`, the Inhibition % was found to be 18.6%. The result for `N#Cc1ccc(NCCc2cn3c(n2)CCCC3)cn1` reads 4.36%; that for `Cc1ccc(Oc2cnc(C#N)cn2)cc1F`, 7.07%. Take `Nc1cc(=O)[nH]c(S)n1`: the Inhibition % amounted to 6.98%.

As to `CC1CN(C(=O)CCN2CCSC2=O)C(C)CO1` (stereo not drawn), the Inhibition % came to 4.2%. The result for `Cn1ncnc1CCNC(=O)c1cccnc1S` reads 5.98%; that for `CC(C)c1cccc(C(C)C)c1NC(=O)CCl`, 2.79%; that for `COc1ccc(CNC(=O)n2ccnc2)cc1OC`, 6.72%. As to `CC(C)N(C)C(=O)CCc1ccc(S(=O)(=O)F)cc1`, the Inhibition % was found to be 4.68%. The result for `O=C1NCCC1CCCl` (stereo not drawn) reads 4.25%; that for `Cl.NC1CN(c2ccccc2)C1=O` (stereo not drawn), 14.1%. The result for `CS(=O)(=O)C(C#N)=Cc1ccc(-c2ccccc2Cl)o1` reads 5.87%. The result for `OB(O)c1ccc(F)cc1OCCc1ccccc1` reads 4.69%; that for `C=CC(=O)NC1CCC2(CC1)CC2(F)F` (stereo not drawn), 3.45%. On to `O=C(CCl)Nc1cc(C2CCCC2)nn1-c1ccccc1`, for which the Inhibition % is reported as 45.7%. For `CC1CC(N2CC=C(c3ccccc3)CC2)C(=O)O1` (stereo not drawn) the value was 6.64%; for `Cl.N#Cc1ncccc1CN1CCCCC1`, 5.62%; for `C=CC(=O)N1CC2(CCOCC2)C1C(C)C` (stereo not drawn), 7.75%. With `CC1CCC(C)N(C(=O)c2cccc(B(O)O)c2)C1` (stereo not drawn), the Inhibition % amounted to 2.89%. For `C=CC(=O)NCc1cn(C2CCC2)nn1` the value was 4.59%; for `C=CC(=O)N1C2CCC1CC(OCC)C2` (stereo not drawn), 13.4%; for `ClCCCn1cccn1`, 5.21%. For `N#Cc1c(NC(=O)CCCl)sc2c1CCC2` the value was 3.99%; for `Cc1cc(CNC(=O)CCl)ccc1F`, 18%; for `CN1CCN(CCCCl)CC1.Cl.Cl`, 9.44%. The result for `C=CC(=O)N1CCC(CN2CCCC2=O)C1` (stereo not drawn) reads 0.453%; that for `CN1CCN(CCC2OCCO2)CC1`, 5.56%; that for `CC1(C)NC(=O)N(CCS(=O)(=O)F)C1=O`, -4.21%. For the compound `CC(NC(=O)CCl)c1ccc(Br)cc1` (stereo not drawn), the Inhibition % amounted to 6.1%. For `CC(C)N1CCN(CCCl)CC1.Cl` the value was 10.8%; for `CC1(C)OB(c2ccc(S(=O)(=O)C(F)(F)F)cc2)OC1(C)C`, 4.13%; for `C=CC(=O)N[C@@H]1CCO[C@H]1c1ccnn1C(C)C` (racemic), 9.62%.

Regarding `Cl.ClCCCN1CCCC1`, the Inhibition % came to 6.72%. For `C=CC(=O)NCc1nccn1C` the value was 8.54%; for `COc1ccc(C(C)(C)C)cc1NC(=O)CCl`, 10.8%; for `Cc1ccc(C=CS(=O)(=O)N(C)CC(N)=O)cc1`, 8.82%. As for `Cc1nnnn1C(=O)N(C)C`, the Inhibition % came to 10.7%. The result for `COc1ccc(F)cc1S(=O)(=O)n1ccnc1C` reads 3.76%; that for `N#Cc1ccc(N2CCCC(N3CCCCCC3)C2)cn1` (stereo not drawn), 5.26%; that for `O=C(CCl)Nc1ccc2c(c1)OCCCO2`, 57.7%. For `N#CC(=Cc1ccco1)C(=O)Nc1nnc(C(F)F)s1` the value was 4.49%; for `O=S(=O)(OCC1CCCO1)c1ccc(Cl)cc1` (stereo not drawn), 13.5%. Take `C=CC(=O)N[C@H]1C[C@H](c2cccc(C)c2)C1`: the Inhibition % amounted to 6.65%. For `Cc1nonc1COc1ccc(N2CCC2=O)cc1` the value was 5.93%. For `N#Cc1ncn(CC(O)c2ccc(C(F)(F)F)cc2)n1` (stereo not drawn) the value was 2.57%; for `Cc1ccccc1-c1noc(=O)[nH]1`, 8.1%. The result for `CN1C(=O)CSC1=CC#N` reads 11.6%; that for `Cc1ccc(OCC2CO2)c(C)c1` (stereo not drawn), 4.72%. Take `O=C(CCl)NCCCC1CCCCC1`: the Inhibition % was 8.8%. The result for `O=C(Nc1ccccc1)C1CCCN(C2CCOC2=O)C1` (stereo not drawn) reads 7.52%. Consider `COc1ccc(-c2nc(C#N)c(N(C)C)o2)cc1`, for which the Inhibition % came out at 5.62%. Turning to `CN1CCCCC1CCCl.Cl` (stereo not drawn), the Inhibition % was -3.52%.

With `COc1cc(Cl)ccc1S(=O)(=O)n1ccnc1C(C)C`, the Inhibition % was determined as 5.37%. `C=CC(=O)NC1CC(OCc2ccccc2)C1(C)C` (stereo not drawn): the Inhibition % is given as 1.66%. The result for `Cc1cccc(C)c1NC(=O)CCl` reads 6.2%. Regarding `O=S(=O)(c1cccc(F)c1)N1CCCC(C2OCCO2)C1` (stereo not drawn), the Inhibition % is recorded as 1.15%.

Turning to `CNC(=O)C(C)(C)Cn1c(S)nc2ccccc2c1=O`, the Inhibition % was 9.98%.

For `CCc1n[nH]c(NC(=O)c2cccnc2S)n1`, the Inhibition % turned out to be 3.06%. The result for `Clc1cnn(CCC2OCCO2)c1` reads 9.67%; that for `COc1cc(C)c(Cl)cc1S(=O)(=O)n1ccnc1C`, 5.78%. For `COc1ccc(S(N)(=O)=O)cc1NC(=O)CCl` the value was 2.41%; for `Sc1nncc(-c2cccs2)n1`, 94.3%; for `Cc1ccc(C=C(C#N)C(=O)N2CCOCC2)s1`, 9.92%.

With `CC1CC(N)CCN1C(=O)C=Cc1cncc(F)c1` (stereo not drawn), the Inhibition % is 3.72%.

On to `O=C(CCl)NC1(c2ccc3c(c2)OCCO3)CCCC1`, for which the Inhibition % was found to be 3.8%. Regarding `O=C(NCc1ccc2c(c1)OCO2)n1ccnc1`, the Inhibition % worked out at 99.9%. The result for `CCC(C)c1ccc(NC(=O)CCl)cc1` (stereo not drawn) reads 99.1%. The result for `CC1(C)OB(c2ccc3c(c2)C(=O)OCC3)OC1(C)C` reads 7.34%; that for `N#Cc1c(F)cccc1N1CCC(C2OCCO2)CC1`, 9.67%. As for `CCOc1ccc(S(=O)(=O)n2cnc(C)c2)cc1`, the Inhibition % is reported as 3.31%. With `Cc1ccc(S(=O)(=O)OCC2CCOCO2)cc1` (stereo not drawn), the Inhibition % was found to be 3.3%. For `O=C(CCl)N(c1ccccc1)C1C=CS(=O)(=O)C1` (stereo not drawn) the value was 12.2%; for `N#Cc1ccnc(Cl)n1`, 3.95%; for `O=C(N1CCc2[nH]c3ccc(F)cc3c2C1)n1ccnc1`, 36.3%.

As to `CC(C1CCOCC1)n1c(S)nc2ccccc2c1=O` (stereo not drawn), the Inhibition % is recorded as 4.97%. The result for `OB(O)c1ccc(C2CC2)cc1Cl` reads 2.09%.

For the compound `Sc1nnnc2ccccc12`, the Inhibition % is 3.52%. For `CCn1nccc1CCCl.Cl` the value was 9.16%; for `O=C(Nc1cccc(OCC(F)F)n1)c1cccnc1S`, 7.62%. For `C=CC(=O)N1CCc2cc(Cl)ccc21` the value was 9.14%. As to `CS(=O)(=O)OCC1CCCNC1=O` (stereo not drawn), the Inhibition % is on record as 7.7%. For `O=C(CCl)NC(=O)Nc1ccccc1F` the value was -2.13%; for `CN(Cc1ccsc1)C(=O)CCl`, 37.6%. For `C=CC(=O)NCC1C=CCC1` (stereo not drawn) the value was 7.33%.

Consider `C=CC(=O)N1CC(C)OC(COC)C1` (stereo not drawn), for which the Inhibition % was 6.19%. The result for `N#Cc1ccc(Cl)cn1` reads 8.27%; that for `CCOc1ccc2nc(NC(=O)CCl)sc2c1`, 4%; that for `CC(C)CCSc1nccnc1C#N`, 0.988%.

With `CC1(C)OB(c2ccc([N+](=O)[O-])nc2)OC1(C)C`, the Inhibition % amounted to 6.69%. The result for `O=C(c1ccc2c(=O)[nH]c(S)nc2c1)N1CCC12CCC2` reads 4.97%.

Turning to `Cc1cc(NC(=O)CCl)ccc1Br`, the Inhibition % came to 32.6%. For `C=CC(=O)N1CCCCC1CC(N)=O` (stereo not drawn) the value was 9.75%; for `N#CC(=Cc1cccnc1)C(=O)NCc1ccccc1`, 2.93%; for `Nc1nnc(CCCl)s1`, 6.53%.

As to `CC(C)CNc1oc(Cc2ccccc2)nc1C#N`, the Inhibition % is 6.85%. For `O=C(CCl)Nc1ccc(Br)cc1Cl` the value was 1.88%; for `COCCc1cccc(B2OC(C)(C)C(C)(C)O2)c1`, 2.75%; for `CCOc1cc(C)c(S(=O)(=O)n2ccnc2C)cc1C`, 5.28%.

On to `CCn1cc(C=C(C#N)c2nc(C)c(C)s2)cn1`, for which the Inhibition % was -0.196%. The result for `O=C(CCN1C(=O)CCC1=O)NC1CCCCCC1` reads 6.54%; that for `C=CC(=O)NCC1CCCC(=O)N1` (stereo not drawn), 13.6%. The result for `Cc1csc(C(C#N)=Cc2cnn(C)c2)n1` reads 11.9%; that for `Cc1ccc2cccc(OC(=O)N(C)C)c2n1`, 5.34%.

As to `O=C1OCCC1N1CCN(C(=O)c2ccco2)CC1` (stereo not drawn), the Inhibition % amounted to 2.84%.

On to `CC(C)c1nc(C#N)cs1`, for which the Inhibition % is 5.66%. For `N#CC(=Cc1cccc(OCc2ccccc2)c1)C(N)=O` the value was 6.41%; for `C=CC(=O)NCC1(O)CC(OCC)C1(C)C` (stereo not drawn), -1.83%; for `C=CC(=O)NC(C)CCc1ccc2c(c1)OCO2` (stereo not drawn), 4.2%. The result for `C=CC(=O)N1CCCC(c2nc3c(s2)CCCC3)C1` (stereo not drawn) reads 7.94%; that for `O=C(CCl)NCC1(c2ccc3c(c2)OCCO3)CCCC1`, 6.4%. For `CC1(C)OB(c2ccoc2)OC1(C)C` the value was 3.89%; for `Cc1nc2ccc(B3OC(C)(C)C(C)(C)O3)cc2o1`, 3.21%; for `Cc1cc(C(=O)CCl)c(C)n1-c1nccs1`, 4.37%. For `CS(=O)(=O)N1CCC(NC(=O)CCl)CC1`, the Inhibition % is 1.74%. The result for `CN1CCC(Cc2nc(-c3cccc(B(O)O)c3)no2)CC1` reads 11.6%; that for `C=CC(=O)Nc1cccc2c1OCCC2`, 8.72%.
